Sequences with one replicate were seen in a single cluster, so their values are uncertain.
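Further: ATP exposure 15 min at 22 °C before imaging.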

The series has as its system ATP. Description: switch fluorescence ratio, 500 uM ATP over buffer (Cy3 cluster intensity, sum of 5 cycles each) (fold (ratio)); higher = stronger signal-on switching upon ATP binding; sequences stand for … in TCGTCGGCAGCGTCAGATGTGTATAAGAGACAGTTTTTTTTTTTTTTTTTTTTTTTTT…TC. The note with it: aptamer strand: ATP DNA aptamer (quencher-CACCTGGGGGAGTATTGCGGAGGAAGG + anchor), 100 nM annealed; ATP concentration: 500 uM; one replicate. The method, boiled down:
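The quencher-labelled ATP aptamer, at 100 nM, was annealed to Cy3-labelled switching-strand clusters on a modified Illumina MiSeq flow-cell. The clusters were imaged in selection buffer, then after 15 min with 500 uM ATP at 22 °C, and this buffer/ATP cycle ran five times with NaOH stripping and re-annealing between runs. Per-cluster fluorescence ratios, summed target-cycle over summed buffer-cycle Cy3 intensity, were averaged per switch-domain sequence. Clusters outside 100-1000 RFU were excluded.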
ATTTTGGAA: the switch fluorescence ratio was found to be 1.01.

On to TGCTTGCTTA, for which the switch fluorescence ratio was found to be 0.942.

For TGCTAGGGGA, the switch fluorescence ratio worked out at 0.967.

For the sequence CGTTTGCGGG, the switch fluorescence ratio was 1.04.

On to AATTCAAATG, for which the switch fluorescence ratio was 1.03.

On to AGTTTGGCT, for which the switch fluorescence ratio was determined as 1.06.

With GGCAGCATGG, the switch fluorescence ratio was 1.06.

With TGCAGAAACG, the switch fluorescence ratio was found to be 1.1.

With ACTGTTAAGC, the switch fluorescence ratio was found to be 1.04.

CGGAGGTAGT: the switch fluorescence ratio turned out to be 0.992.

As for CGGGATGGTG, the switch fluorescence ratio was 0.886.

For AAATGATGAG, the switch fluorescence ratio was 0.997.

As for AGGATATGTG, the switch fluorescence ratio is 1.01.

CAGTTTGCCA: the switch fluorescence ratio turned out to be 1.02.

Turning to TGTAGCAGTT, the switch fluorescence ratio came to 1.3.

Regarding TATGAATTCT, the switch fluorescence ratio is 1.02.

In the case of GTTGCTTGAC, the switch fluorescence ratio is 1.01.

With CGGGCGTATT, the switch fluorescence ratio worked out at 1.01.

For the sequence ATATCAACAT, the switch fluorescence ratio is 1.02.

As for GTTGAAGTG, the switch fluorescence ratio is 1.01.

Turning to GTGTTGGGAG, the switch fluorescence ratio was determined as 0.991.

For the sequence GATGTGCGCG, the switch fluorescence ratio was 1.11.

As for AATGCCCCTT, the switch fluorescence ratio came to 1.01.

As to ACGGGGGGCC, the switch fluorescence ratio is 0.966.

With CCTCTAGTGG, the switch fluorescence ratio was found to be 1.07.

GCACGGGATC: the switch fluorescence ratio came to 1.06.

Consider ACGTGGGCGC, for which the switch fluorescence ratio was determined as 0.994.

On to GATACACAAT, for which the switch fluorescence ratio came out at 1.06.

With GTAACTCGCA, the switch fluorescence ratio was determined as 1.17.

With TGACACATAG, the switch fluorescence ratio worked out at 1.02.

TCACGTGCG: the switch fluorescence ratio came to 1.07.

TGACGTCTTT: the switch fluorescence ratio came out at 0.996.

Regarding CACGCGTTAG, the switch fluorescence ratio was found to be 1.01.

Consider AAAGTCGATC, for which the switch fluorescence ratio was determined as 0.978.

Regarding CGGTCAGCGG, the switch fluorescence ratio was 1.

Consider AGATAGTAGC, for which the switch fluorescence ratio amounted to 0.987.

TTGCCTAGTC: the switch fluorescence ratio was 1.2.

Consider TCGGCTGGCA, for which the switch fluorescence ratio worked out at 1.02.

Take CCCCAACGTA: the switch fluorescence ratio was 1.1.

For TAACGCGAGC, the switch fluorescence ratio came to 1.09.

With GGGGCCAAGA, the switch fluorescence ratio is 0.991.

AGCACATGGC: the switch fluorescence ratio was 1.01.

On to GGTCGACTTC, for which the switch fluorescence ratio came out at 1.02.

On to CGGTCCTTTG, for which the switch fluorescence ratio worked out at 1.01.

On to ATAGATGG, for which the switch fluorescence ratio was 1.1.

In the case of GAGAAGTTCG, the switch fluorescence ratio stood at 0.974.

Take GGCCGGAATG: the switch fluorescence ratio is 1.07.

Turning to TAACCGAAAT, the switch fluorescence ratio turned out to be 1.19.

On to ATGTCTTCTA, for which the switch fluorescence ratio is 0.968.

With CGCATCTCAG, the switch fluorescence ratio worked out at 1.24.

Consider GGGGGCGAGT, for which the switch fluorescence ratio is 1.02.

For the sequence CCCTCAACAG, the switch fluorescence ratio is 1.09.

TTAATGGTCT: the switch fluorescence ratio amounted to 1.

For the sequence GCCACCATAA, the switch fluorescence ratio was 1.07.

Turning to TGATCAGGC, the switch fluorescence ratio is 0.969.

Take GGAGGCTAAA: the switch fluorescence ratio was 1.02.

For ACTGCAGGTG, the switch fluorescence ratio was determined as 2.47.

In the case of TTTAACAGT, the switch fluorescence ratio was 0.953.

As to TTCACTTACT, the switch fluorescence ratio came out at 1.12.

Take AGGTCGAAGA: the switch fluorescence ratio amounted to 0.932.

As for GGATAATGTC, the switch fluorescence ratio is 0.99.

Take CATAAAACCA: the switch fluorescence ratio stood at 1.04.

For GGACTTGTGC, the switch fluorescence ratio is 0.972.

In the case of AGATTTGGGT, the switch fluorescence ratio was found to be 0.997.

In the case of TGTTAACTCG, the switch fluorescence ratio came out at 0.953.

As for TTCTCGATTC, the switch fluorescence ratio came out at 1.04.

Turning to AATTTATTAG, the switch fluorescence ratio came out at 0.99.

With TATATTCTAG, the switch fluorescence ratio was determined as 0.991.

In the case of CAAGGGACCG, the switch fluorescence ratio turned out to be 0.885.

With ACCATTCTGC, the switch fluorescence ratio was found to be 0.935.

As for ACAATGGGCT, the switch fluorescence ratio is 0.983.

For CGAATAGCTG, the switch fluorescence ratio worked out at 0.97.

Turning to ACTTTCTATT, the switch fluorescence ratio is 1.01.

With GTCACACCAT, the switch fluorescence ratio turned out to be 1.03.

Consider CCAGTGATTG, for which the switch fluorescence ratio was 1.

In the case of TAATCTAGTT, the switch fluorescence ratio turned out to be 0.983.

Turning to ACAGTCTTTC, the switch fluorescence ratio came out at 0.959.

TAACGTGCTG: the switch fluorescence ratio worked out at 1.04.

TACAGCGCAA: the switch fluorescence ratio stood at 1.23.

Source of the values: the supplement of paper PMC10126150.
